{"source": "paper PMC6919601", "about": "“Identification of Plasmodium dipeptidyl aminopeptidase allosteric inhibitors by high throughput screening” (PLoS ONE, 2019)", "note": "Values joined by “and” are separate entries in the source; they are usually repeats but may differ in a detail not shown here. Identical values can stand only once. Hit rate of the full screen: of about 110,000 compounds, about 230 (0.21%) showed an effect of 50% or more. The list shows a part of the results.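 Note: 30 min substrate incubation versus DMSO and 10 µM JCP410 controls.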", "data": [{"target": "DPAP1 (Plasmodium falciparum, UniProt Q8IIJ9)", "sequence (Q8IIJ9 whole entry, looked up)": "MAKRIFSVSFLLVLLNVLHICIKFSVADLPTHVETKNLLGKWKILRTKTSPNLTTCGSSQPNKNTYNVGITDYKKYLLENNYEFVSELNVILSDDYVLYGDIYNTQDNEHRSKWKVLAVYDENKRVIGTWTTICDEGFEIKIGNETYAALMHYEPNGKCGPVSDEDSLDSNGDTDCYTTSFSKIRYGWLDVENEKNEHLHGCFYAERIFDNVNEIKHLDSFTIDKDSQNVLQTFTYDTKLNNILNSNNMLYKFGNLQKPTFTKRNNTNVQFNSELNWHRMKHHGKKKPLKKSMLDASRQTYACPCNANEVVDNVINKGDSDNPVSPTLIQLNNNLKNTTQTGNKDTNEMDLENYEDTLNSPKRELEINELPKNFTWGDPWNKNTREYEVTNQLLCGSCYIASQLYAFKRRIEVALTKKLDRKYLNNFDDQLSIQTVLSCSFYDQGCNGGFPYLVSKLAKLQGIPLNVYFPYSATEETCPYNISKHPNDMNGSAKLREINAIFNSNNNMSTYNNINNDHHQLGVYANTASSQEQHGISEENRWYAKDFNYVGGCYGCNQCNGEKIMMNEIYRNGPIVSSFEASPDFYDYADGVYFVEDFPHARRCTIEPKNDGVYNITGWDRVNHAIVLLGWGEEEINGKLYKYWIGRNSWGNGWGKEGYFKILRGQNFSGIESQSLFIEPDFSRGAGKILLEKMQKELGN", "test": "primary screen, percent inhibition; read by cleavage of a fluorogenic dipeptide substrate; higher = more effect of the substance", "set-up": "species or system P. falciparum D10 trophozoite lysates; single well", "values": [{"smiles": "Cc1ccc(CCNC(=O)C2CCCN(S(=O)(=O)c3c(C)nn(C)c3C)C2)cc1", "note": "(centres unmarked)", "% Inhibition @ 10 uM": "-1.03%"}, {"smiles": "CCn1c2ccccc2c2cc(CN3CCCC(O)C3)ccc21", "note": "(centres unmarked)", "% Inhibition @ 10 uM": "-0.828%"}, {"smiles": "CCOC(=O)C1=C(C)N=C2SCCN2C1c1ccccc1", "note": "(centres unmarked)", "% Inhibition @ 10 uM": "1.08% and -5.62%"}, {"smiles": "C=CCN1C(=O)N/C(=C/c2cc(C)n(CC)c2C)C1=O", "% Inhibition @ 10 uM": "-2.37%"}, {"smiles": "Cn1c(CCCO)nc2ccccc21", "% Inhibition @ 10 uM": "4.3%"}, {"smiles": "COc1cccc(-c2cn3c(n2)sc2cc(C(=O)N4CCC(C(N)=O)CC4)ccc23)c1", "% Inhibition @ 10 uM": "29.2%"}, {"smiles": "COc1ccc(C2CC(=O)C3=C(C2)NC(=O)CC3c2cccc(OC)c2OC)cc1", "note": "(centres unmarked)", "% Inhibition @ 10 uM": "1.97%"}, {"smiles": "CC1(NC(=O)N2CCOCC2)CCS(=O)(=O)C1", "note": "(centres unmarked)", "% Inhibition @ 10 uM": "0.627%"}, {"smiles": "CCn1c(SCC(=O)N2CCN(c3ccc(F)cc3)CC2)nc2ccccc2c1=O", "% Inhibition @ 10 uM": "-5.35%"}, {"smiles": "COc1ccc(CC(=O)Nc2ccc(S(=O)(=O)N3CCCCC3)cc2)cc1", "% Inhibition @ 10 uM": "-2.98%"}, {"smiles": "O=C(O)c1ccc2[nH]c(-c3cc4ccc(OCc5ccccc5)cc4oc3=O)nc2c1", "% Inhibition @ 10 uM": "-5.22%"}, {"smiles": "CCn1cc(C(=O)N2CCN(Cc3ccc4c(c3)OCO4)CC2)c(=O)c2ccc(C)nc21", "% Inhibition @ 10 uM": "0.718%"}, {"smiles": "CCCSc1nc(O)c(C(C)CCC)c(=O)n1CC", "note": "(centres unmarked)", "% Inhibition @ 10 uM": "38.9%"}, {"smiles": "COc1nc(NCCc2ccc(OC)c(OC)c2)nc(N2CCC(Cc3ccccc3)CC2)n1", "% Inhibition @ 10 uM": "-1.43%"}, {"smiles": "CC1CC(C)CN(C(=O)C2CCN(S(=O)(=O)c3ccc4nc(O)ccc4c3)CC2)C1", "note": "(centres unmarked)", "% Inhibition @ 10 uM": "0.309%"}, {"smiles": "O=C(NC(Cc1ccccc1)C(=O)Nc1ccc2ccccc2c1)c1ccccc1", "note": "(centres unmarked)", "% Inhibition @ 10 uM": "-1.77%"}, {"smiles": "Cc1ccc(S(=O)(=O)N2C(=O)/C(=C3\\SC(N)=NC3=O)c3ccccc32)cc1", "% Inhibition @ 10 uM": "-4.97%"}, {"smiles": "CCCCCN1COc2ccc3c(C)cc(=O)oc3c2C1", "% Inhibition @ 10 uM": "-1.01%"}, {"smiles": "CN1C2=C(C(=O)CC(C)(C)C2)C(c2cccs2)C2=C1CC(C)(C)CC2=O", "% Inhibition @ 10 uM": "-0.63%"}, {"smiles": "COc1ccc(CN(C(=O)c2cc(OC)c(OC)c(OC)c2)C2CCS(=O)(=O)C2)cc1", "note": "(centres unmarked)", "% Inhibition @ 10 uM": "0.561%"}, {"smiles": "CC(=O)c1ccc(NC(=O)C(C)Oc2ccc(Cl)cc2Cl)cc1", "note": "(centres unmarked)", "% Inhibition @ 10 uM": "2.13%"}, {"smiles": "CCOC(=O)c1cc(-c2nnco2)c(C)nc1C", "% Inhibition @ 10 uM": "1.03%"}, {"smiles": "CC(C)c1ccc(-c2c(NCCN3CCCCC3C)c(=O)c2=O)cc1", "note": "(centres unmarked)", "% Inhibition @ 10 uM": "-5.92%"}, {"smiles": "COC(=O)c1ccc2c(c1)C(C)(C)C(/C=C/c1cc(O)ccc1O)=[N+]2C", "% Inhibition @ 10 uM": "-3.41%"}, {"smiles": "Cc1ccc(NC2=NC(=O)C(CC(=O)NCc3ccccc3)S2)cc1C", "note": "(centres unmarked)", "% Inhibition @ 10 uM": "3.86%"}, {"smiles": "COc1ccc2nc(NC(=O)c3sc(C)nc3C)sc2c1", "% Inhibition @ 10 uM": "-4.54%"}]}]}
